From publication PMC4336329 (PLoS ONE, 2015)
The campaign covered roughly 310,000 compounds. About 14,000 (4.5%) showed an effect of 50% or more. The effect is printed as a negative number. This is one part of the list.

Target: human ether-à-go-go-related gene (hERG) potassium channel (human, UniProt Q12809)
Test: primary screen, population patch clamp on CHO cells stably expressing hERG
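Also: peak tail current of the secondary pulse compared with the same well before compound.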

Chain of human ether-à-go-go-related gene (hERG) potassium channel (Q12809 whole entry, looked up): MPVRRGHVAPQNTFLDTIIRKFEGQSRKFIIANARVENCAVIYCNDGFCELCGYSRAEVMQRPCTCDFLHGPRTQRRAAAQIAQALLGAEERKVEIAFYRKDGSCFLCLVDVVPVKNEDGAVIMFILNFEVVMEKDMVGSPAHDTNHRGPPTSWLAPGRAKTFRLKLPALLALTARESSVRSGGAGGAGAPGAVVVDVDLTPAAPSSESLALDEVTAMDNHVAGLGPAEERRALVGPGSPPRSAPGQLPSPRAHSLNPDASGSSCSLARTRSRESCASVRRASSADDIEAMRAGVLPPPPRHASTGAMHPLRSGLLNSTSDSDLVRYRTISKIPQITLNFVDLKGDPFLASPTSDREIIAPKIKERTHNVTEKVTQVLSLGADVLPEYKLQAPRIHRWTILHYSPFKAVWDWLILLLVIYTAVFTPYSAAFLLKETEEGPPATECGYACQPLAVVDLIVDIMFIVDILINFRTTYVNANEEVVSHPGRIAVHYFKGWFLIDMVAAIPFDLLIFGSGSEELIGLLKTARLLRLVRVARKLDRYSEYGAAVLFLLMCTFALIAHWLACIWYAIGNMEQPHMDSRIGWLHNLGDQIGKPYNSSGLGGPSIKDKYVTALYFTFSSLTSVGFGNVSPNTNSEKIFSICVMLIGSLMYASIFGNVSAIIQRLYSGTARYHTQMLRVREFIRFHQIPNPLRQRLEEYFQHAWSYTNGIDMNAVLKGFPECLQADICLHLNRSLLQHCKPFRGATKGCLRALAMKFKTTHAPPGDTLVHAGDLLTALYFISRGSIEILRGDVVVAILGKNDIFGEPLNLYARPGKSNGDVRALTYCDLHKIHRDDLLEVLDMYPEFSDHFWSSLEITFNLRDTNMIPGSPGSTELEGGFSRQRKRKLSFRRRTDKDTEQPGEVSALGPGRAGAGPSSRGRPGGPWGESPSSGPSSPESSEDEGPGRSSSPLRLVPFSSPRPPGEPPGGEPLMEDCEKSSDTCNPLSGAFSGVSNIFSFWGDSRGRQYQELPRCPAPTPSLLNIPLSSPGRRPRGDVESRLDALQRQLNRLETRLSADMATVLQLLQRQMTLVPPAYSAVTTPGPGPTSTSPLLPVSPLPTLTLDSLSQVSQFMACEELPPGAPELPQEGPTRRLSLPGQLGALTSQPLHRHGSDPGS

| Structure (SMILES) | hERG current change (%, negative = inhibition) at 10uM |
| --- | --- |
| O=C(COC(=O)c1ccccc1[N+](=O)[O-])NC(=O)c1ccccc1 | 5.64% |
| CC(=O)O[C@@H]1C[C@H]2C(C)=C[C@H]3OC(=O)[C@@H](C)[C@H]3C[C@H]2[C@]1(C)O | 4.33% |
| CCOC(=O)CSc1nc(N)nc(C)c1Cl | 13.4% |
| O=C(CCNC(=O)C1CCN(S(=O)(=O)c2ccccc2)CC1)Nc1ccccc1 | 4.75% |
| COc1cccc(CNC(=O)C(c2ccc(Cl)cc2)C(C)C)c1 (stereo not shown) | 11.5% |
| O=C(COC(=O)c1ccccc1Br)Nc1ccccc1F | -21% |
| CC1CCCCC1NC(=O)CN1C(=O)NC(Cc2ccccc2)(Cc2ccccc2)C1=O (stereo not shown) | -14.6% |
| Cc1cc(C)c(S(=O)(=O)N2CCCC2)c(C)c1 | 9.56% |
| CSc1ccc(C(c2c(C(=O)O)[nH]c3ccccc23)c2c(C(=O)O)[nH]c3ccccc23)cc1 | 12.1% |
| COc1nc2c(s1)C(=O)NCCC2 | -1.58% |
| Cc1ccccc1C(=O)c1cccn1CC(=O)NCCCN1CCc2ccccc2C1 | -78.6% |
| Cc1c(C(=O)N2CCOCC2)c(S(=O)(=O)Nc2ccc(Br)cc2F)c(C)n1C | 14.1% |
| Cc1cccc(-n2c(N)cc(=O)[nH]c2=S)c1C | -0.207% |
| Cc1ccc(NC(=O)Nc2ncnc3nc[nH]c23)cc1 | 6.43% |
| COc1ccc(CCNC(=O)C(=O)NCC2CCNCC2)cc1OC | 14.3% |
| CCC1(CC)NC(=O)N(CC(=O)OCC(=O)Nc2sccc2C#N)C1=O | 16.7% |
| O=C(COc1ccc(S(=O)(=O)Nc2ccccc2)cc1)NCc1ccncc1 | 7% |
| Cc1[nH]n(C(N)=S)c(=O)c1N=Nc1ccc(Cl)cc1Cl | -19.5% |
| COC(=O)C1=C(c2ccc(-c3ccccc3)c(F)c2)C[C@@H]2CC[C@H]1N2C(=O)NCc1cc(C)oc1C(F)(F)F | -1.04% |
| O=[N+]([O-])c1cccc(/C=N/Nc2nc(NCc3ccccc3)nc(N3CCOCC3)n2)c1 | 12% |

| Structure (SMILES) | hERG current change (%, negative = inhibition) at 10uM |
| --- | --- |
| C=CCNc1nc(-c2cccs2)c(CC(=O)O)s1 | -2.08% |
| Cc1[nH]c(=O)[nH]c(=O)c1S(=O)(=O)N1CCN(c2cccc(Cl)c2)CC1 | 2.58% |
| Cc1ccc(N2C(=O)C3C4C=CC(CNC(=S)Nc5ccc(Cl)cc5)(O4)C3C2=O)cc1 (stereo not shown) | 4.42% |
| O=C(OCCN1C(=O)c2ccccc2C1=O)c1cc2ccccc2o1 | 1.62% |
| CC(=O)c1cccc(NC(=O)C(C)N(C)CC(=O)Nc2ccc(Cl)cc2)c1 (stereo not shown) | -5.14% |
| COc1cc(C2C(N3C(=O)c4ccccc4C3=O)C(=O)N2c2ccc(C)c(C)c2)cc(OC)c1OC (stereo not shown) | 22.7% |
| Cc1csc(=O)n1CC(=O)OCC(=O)c1ccc(Br)cc1 | -14% |
| O=P1(O)C=C(c2ccccc2)OC(c2ccccc2)=C1 | 23.9% |
| Cc1c(C(=O)N(C)C)sc(NC(=O)c2cc([N+](=O)[O-])cc([N+](=O)[O-])c2)c1C#N | 5.58% |
| Cn1cncc1C#Cc1c(C=O)[nH]c2ccccc12 | 6.07% |
| COc1ccc(C(=O)Nc2ccc(Br)cn2)cc1S(=O)(=O)N1CCOCC1 | -57.9% |
| CCCn1c(NC(=O)c2ccc(F)cc2)nc2ccccc21 | 14.5% |
| CN=C(C)c1c(O)c2ccccc2oc1=O | -16.9% |
| Cc1nn(CCS(=O)(=O)c2ccc(Cl)cc2)c(C)c1Br | 1.2% |
| CCn1c(C)c(C(=O)O)c2cc(OC)ccc21 | 6.41% |
| O=C(Nc1cccnc1N1CCOCC1)c1cccs1 | -9.08% |
| COc1cc(NC(=O)c2cccc3c2C(=O)N(C2CCCCC2)C3)cc(OC)c1OC | 2.33% |
| COc1ccc(NC2=NC(C)(CO)CS2)cc1 (stereo not shown) | 17.5% |
| O=C(Oc1ccc2ccc(=O)oc2c1)c1ccccc1 | 14.2% |
| CCn1c(SCC(=O)O)nnc1-c1ccccc1OC | 19.2% |

| Structure (SMILES) | hERG current change (%, negative = inhibition) at 10uM |
| --- | --- |
| COc1cc(/C=N/NC(=O)c2cc(C3CC3)[nH]n2)cc(OC)c1OC | 13.1% |
| COc1ccc(NC(=S)N(CCCN2CCC(C)CC2)Cc2cccs2)cc1Cl | -73.1% |
| O=C1CCN(Cc2ccccc2)CCN1[C@H](CSc1ccccc1)c1ccccc1 | -44.7% |
| Cn1c2ccccc2c(=O)c2ccc(C#Cc3ccc(N)cc3)cc21 | 18.1% |
| Cc1ccccc1NC(=O)CSc1ccncc1 | -1.94% |
| O=C(CCC(=O)N1CCOCC1)NCCc1ccc(F)cc1 | 6.27% |
| COc1cccc(N2CC(C(=O)OC(C)C(=O)c3ccccc3)CC2=O)c1 (stereo not shown) | -2.07% |
| O=C(NCC1CCCO1)NC1(C(F)(F)F)Oc2ccccc2O1 (stereo not shown) | 1.63% |
| COc1cccc(/C=C2\SC(=S)N(N3C(=O)CCCC3=O)C2=O)c1 | 24.5% |
| COc1ccc(-c2nnc(SCC(=O)N3CCCC3)o2)c(OC)c1 | 7.35% |
| c1ccc(Nc2nc3ccccc3n3cnnc23)cc1 | -2.08% |
| Cn1c(N2CCC(C(N)=O)CC2)nc2c1c(=O)n(Cc1ccc(Cl)cc1)c(=O)n2C | -58.5% |
| O=S1(=O)CCOC[C@H](c2ccccc2)N1Cc1ccccc1F | -4.34% |
| COc1cccc(/C=C/C(=O)OCC(=O)NCC2CCCO2)c1OC (stereo not shown) | -6.11% |
| CCCCc1ccc(-n2c(Cc3cccs3)n[nH]c2=S)cc1 | -56.3% |
| CCOc1ccc(NC(=O)CSc2nnc(C)n2CC)cc1 | 13.7% |
| CCC(=O)N1CCc2cc(S(=O)(=O)NC(Cc3ccccc3)C(=O)Nc3nccs3)ccc21 (stereo not shown) | 4.77% |
| COc1ccccc1NC(=O)CSc1n[nH]c(-c2ccccn2)n1 | -1.44% |
